ChEMBL document CHEMBL4888484, “Replenishing the malaria drug discovery pipeline: Screening and hit evaluation of the MMV Hit Generation Library 1 (HGL1) against asexual blood stage Plasmodium falciparum ,using a nano luciferase reporter read-out” (2022)
The whole screen tested about 150,000 compounds, of which about 540 (0.36%) showed an effect of 50% or more. The list shows a part of the results.

Each molecule was assayed on Plasmodium falciparum (assay: Primary screen in NF54 nanoGlo assay, in single point, at 2uM, 72h; a lower Z score goes with more inhibition). Settings: timepoint 72 hour.
Format: functional, Erythrocyte
For `CC1CCN(c2nc3c(c(Oc4ccc(F)cc4)n2)CN(Cc2ccsc2)CC3)CC1`, the “% Inhibition” value was -2% and the Z score was 0.16.
For `COCC[C@H]1CN(Cc2cc3cc(C)ccc3n2C)CCO1`, the “% Inhibition” value was 3% and the Z score was -0.57.
In the case of `C[C@@H](NC(=O)N1CCN(CCOCCO)CC1)c1ccc(F)cc1`, the “% Inhibition” value is reported as 6% and the Z score is reported as -0.85.
In the case of `COCCn1nnnc1[C@]1(N2CCOCC2)CCCN(C(=O)c2ccco2)C1`, the “% Inhibition” value is reported as 4% and the Z score is reported as -0.55.
For `O=C(COC[C@H]1CCCO1)Nc1ccnn1Cc1ccsc1`, the “% Inhibition” value was 7% and the Z score was -0.92.
`NC(=O)c1cnc(NC(=O)C2CC2c2ccccc2)c(Cl)c1` (stereo not drawn) was tested, and the “% Inhibition” value was -8% and the Z score was 1.22.
`Cc1ccc(-c2nc(-c3ccc4nncn4c3)no2)s1` was tested, and the “% Inhibition” value was -20% and the Z score was 3.37.
In the case of `O=C(NCC1CC1)[C@]1(F)CCCN(Cc2ccccc2)C1`, the “% Inhibition” value is reported as -26% and the Z score is reported as 2.32.
For `CCOCCn1nc(C)cc1C(=O)N1CCC[C@H]1c1nc(C(C)C)no1`, the “% Inhibition” value was -13% and the Z score was 1.47.
`CN(C)S(=O)(=O)N1C[C@H]2CC[C@@H](C1)N(CCOCc1ccccc1)C2` was tested, and the “% Inhibition” value was -1% and the Z score was 0.26.
In the case of `O=C(NCc1cn(-c2ccsc2)nn1)Nc1nc(C2CC2)cs1`, the “% Inhibition” value is reported as 6% and the Z score is reported as -0.95.
`C[C@H](NC(=O)C#Cc1ccc2c(c1)OCO2)c1nccs1` was tested, and the “% Inhibition” value was 4% and the Z score was -0.48.
In the case of `CCc1nn(C)c(Cl)c1CN1CCC[C@H](CS(C)(=O)=O)C1`, the “% Inhibition” value is reported as -2% and the Z score is reported as 0.36.
With `COc1ccc(CCN2C(=O)[C@H](CCC(=O)N3CCc4cc(OC)c(OC)cc4C3)N=C2O)cc1` the “% Inhibition” value was -17% and the Z score was 2.25.
In the case of `CCCN(C(=O)Nc1cn(CC(C)C)c(=O)c2ccccc12)c1ccccc1C`, the “% Inhibition” value is reported as 1% and the Z score is reported as -0.21.
For `COc1ccc(C(=O)N[C@@H]2CCC[C@@H]2C(=O)NCc2ccc(C)o2)cc1`, the “% Inhibition” value was -1% and the Z score was 0.15.
`COC(=O)CNC(=O)N1CCCCC[C@H]1c1ccccc1Cl` was tested, and the “% Inhibition” value was 11% and the Z score was -1.5.
For `C[C@H](NC(=O)Cc1ccncc1)C(=O)N1CCCC1`, the “% Inhibition” value was -6% and the Z score was 0.83.
With `Cc1ccc(C)c(Cn2cccc2CNC(=O)NC2CCCCC2)c1` the “% Inhibition” value was 8% and the Z score was -1.18.
For `O=C1CN(S(=O)(=O)c2cccc3cccnc23)CCN1c1ccccn1`, the “% Inhibition” value was 17% and the Z score was -2.14.
For `CC(C)(C)[C@H](NS(=O)(=O)CC1CCOCC1)c1ccccc1`, the “% Inhibition” value was 1% and the Z score was -0.08.
For `Cc1noc(C)c1NC(=O)[C@H]1CC(=O)N(C2CCC(C)CC2)C1` (stereo partly drawn), the “% Inhibition” value was -7% and the Z score was 1.38.
In the case of `CC(C)[C@H](CNC(=O)c1ccc2c(c1)CCCC2)N1CCN(C)CC1`, the “% Inhibition” value is reported as -3% and the Z score is reported as 0.53.
In the case of `Cc1cccc2nc(C3CCN(c4ncnn4C)CC3)oc12`, the “% Inhibition” value is reported as -16% and the Z score is reported as 1.89.
In the case of `Cn1cc(S(=O)(=O)N2CCCCCC2)cc1C(=O)Nc1ccccc1F`, the “% Inhibition” value is reported as -1% and the Z score is reported as 0.13.
With `CCCNC(=O)C1CCN(c2nc3ncn(CC(=O)Nc4cccc(C)c4)c(=O)c3s2)CC1` the “% Inhibition” value was -10% and the Z score was 1.79.
`N#CC1CCN(C(=O)c2cnc(OC3CCOCC3)c(Cl)c2)CC1` was tested, and the “% Inhibition” value was -19% and the Z score was 3.56.
With `Cc1ccncc1C(=O)N1CCC(C(=O)O)(n2ccc(C(C)(C)C)n2)CC1` the “% Inhibition” value was -5% and the Z score was 0.95.
`O[C@@H](CNCc1c[nH]nc1-c1cccnc1)c1ccccc1F` was tested, and the “% Inhibition” value was 11% and the Z score was -1.07.
For `CC(=O)N1CCN(CCOc2ccccc2Cl)CCC12CCOCC2`, the “% Inhibition” value was 5% and the Z score was -0.72.
In the case of `Cc1cc(F)ccc1-n1cc(C(=O)NC2(C#N)CCOCC2)nn1`, the “% Inhibition” value is reported as -6% and the Z score is reported as 1.16.
`COCCN(Cc1ccc(C(O)(c2cccc(F)c2)c2cccc(F)c2)o1)Cc1ccccc1OC` was tested, and the “% Inhibition” value was -4% and the Z score was 0.5.
In the case of `COc1ncccc1-c1n[nH]c2ncccc12`, the “% Inhibition” value is reported as -10% and the Z score is reported as 1.93.
For `CN(CC(=O)Nc1nnc(C(F)F)s1)S(=O)(=O)c1ccc(Br)cc1`, the “% Inhibition” value was -7% and the Z score was 1.31.
`OC(COCc1ccco1)CN1CCCCC1Cn1cncn1` (stereo not drawn) was tested, and the “% Inhibition” value was -7% and the Z score was 1.04.
With `NC(=O)c1nnsc1NC(=O)C(F)F` the “% Inhibition” value was -5% and the Z score was 0.75.
With `CCC1(CC)Oc2ccc(NC(=O)[C@H](C)NC(=O)c3ccoc3)cc2O1` the “% Inhibition” value was 8% and the Z score was -0.81.
For `O=C(NC[C@H](O)c1cccnc1)c1coc(COc2ccc(F)cc2)n1`, the “% Inhibition” value was -10% and the Z score was 1.58.
For `CCc1nccn1CCC(=O)NCc1nonc1C`, the “% Inhibition” value was -6% and the Z score was 0.93.
`O=C(Nc1ccc(N2CCCN(Cc3cccc(Cl)c3F)C2=O)cc1)c1ccccc1Cl` was tested, and the “% Inhibition” value was -12% and the Z score was 2.17.
`COc1cc(-c2noc(-c3ccccc3)n2)ccc1OCC(=O)Nc1cc(C)cc(C)c1` was tested, and the “% Inhibition” value was -3% and the Z score was 0.62.
`Nc1nccnc1C(=O)NC1CCCCCCC1` was tested, and the “% Inhibition” value was -10% and the Z score was 1.99.
With `COCC(=O)N[C@H]1CO[C@H]2[C@@H]1OC[C@@H]2n1nnnc1Oc1ccc(-n2ccnc2)cc1` the “% Inhibition” value was 13% and the Z score was -1.56.
For `COc1nc(C)cc(NC2C3CCOC3C2(C)C)n1` (stereo not drawn), the “% Inhibition” value was 1% and the Z score was -0.1.
In the case of `C[C@H]1CN(C)CCN1C(=O)c1cn2cccnc2n1`, the “% Inhibition” value is reported as -1% and the Z score is reported as 0.06.
For `CCn1nccc1-c1n[nH]c(=O)n1CC`, the “% Inhibition” value was -3% and the Z score was 0.43.
In the case of `COc1ccc(C(=O)N2CCCN(c3nnc(C(F)(F)F)s3)CC2)nc1`, the “% Inhibition” value is reported as -2% and the Z score is reported as 0.25.
In the case of `Cn1c(CN[C@H]2CCc3ccccc32)nc2ccccc21`, the “% Inhibition” value is reported as -6% and the Z score is reported as 1.01.
In the case of `CC1(C)CCC(C(=O)N2CCC[C@@H]2C(N)=O)O1` (stereo partly drawn), the “% Inhibition” value is reported as -8% and the Z score is reported as 0.84.
`CCc1nnc2n1CCN(CCCCC#N)C2` was tested, and the “% Inhibition” value was -8% and the Z score was 1.02.
For `CCC1CCCCC1OCC(=O)N1CCOCC1C1CCCCC1=O` (stereo not drawn), the “% Inhibition” value was -5% and the Z score was 0.59.
For `Cc1cc(-c2ccc(C(=O)N3CCN(Cc4nnc[nH]4)CC3)cc2)ccn1`, the “% Inhibition” value was 3% and the Z score was -0.31.
In the case of `O=C(N[C@H]1CCC[C@@H]1O)C1COc2ccc(Br)cc21` (stereo partly drawn), the “% Inhibition” value is reported as 27% and the Z score is reported as -3.05.
`O=c1ccc(NS(=O)(=O)c2ccccc2)c2n1C[C@H]1C[C@@H]2CN(S(=O)(=O)c2ccccc2)C1` was tested, and the “% Inhibition” value was -2% and the Z score was 0.32.
